Assay results: the supplement of paper PMC4604168 (melanoma cell lines)
This is one part of the list. Many values rest on one well or one pass, so single values are uncertain.

System: A101D
Assay: cell count relative to DMSO control; melanoma cells; higher = more viable cells
Conditions: library dose: low library concentration; 72 h
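Also: cell number obtained by counting DAPI-stained nuclei in high-throughput microscope images with image analysis software, screen run in 1,536-well plates.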

| SMILES | cell count |
| --- | --- |
| O=C(Nc1cccc(Cl)c1)Nc1ncc(CCNc2ncnc3ccsc23)s1 + Cc1cc(SCc2sc(-c3ccc(C(F)(F)F)c(F)c3)nc2C)ccc1OCC(=O)O [GW0742] (first compound 0.0008 µM, partner dose 2 µM) | 91% |
| O=C(Oc1ccc([N+](=O)[O-])cc1)N1CCC(C(O)(c2ccc3c(c2)OCO3)c2ccc3c(c2)OCO3)CC1 + Cn1cc(/C=C2\C(=O)Nc3cccnc32)c2ccccc21 [GW441756] (first compound 1 µM, partner dose 0.4 µM) | 92.9% |
| Cn1cnc2c(F)c(Nc3ccc(Br)cc3Cl)c(C(=O)NOCCO)cc21 [selumetinib] + C[As](C)SC[C@H](NC(=O)CC[C@H](N)C(=O)O)C(=O)NCC(=O)O [Darinaparsin] (first compound 0.015 µM, partner dose 0.4 µM) | 91.5% |
| CN(C)S(=O)(=O)c1ccc2c(c1)/C(=C/c1cc3c([nH]1)CCCC3)C(=O)N2 + Cc1cc(SCc2sc(-c3ccc(C(F)(F)F)c(F)c3)nc2C)ccc1OCC(=O)O [GW0742] (first compound 0.4 µM, partner dose 2 µM) | 90.8% |
| C/C(O)=C(\C#N)C(=O)Nc1cc(Br)ccc1Br + CC(C)CCN1c2nc(Nc3cc(F)c(O)c(F)c3)ncc2N(C)C(=O)C1C [BID1870] (first compound 2 µM, partner dose 0.2 µM) | 94% |
| Cc1cc(N2CCOCC2)cc2[nH]c(-c3c(NC[C@@H](O)c4cccc(Cl)c4)cc[nH]c3=O)nc12 + C/C(O)=C(\C#N)C(=O)Nc1cc(Br)ccc1Br [LFM-A13] (first compound 0.2 µM, partner dose 2 µM) | 97.5% |
| CN(C)S(=O)(=O)c1ccc2c(c1)/C(=C/c1cc3c([nH]1)CCCC3)C(=O)N2 + O=C(Oc1ccc([N+](=O)[O-])cc1)N1CCC(C(O)(c2ccc3c(c2)OCO3)c2ccc3c(c2)OCO3)CC1 [JZL184] (first compound 0.4 µM, partner dose 1 µM) | 70.5% |
| C/C(O)=C(\C#N)C(=O)Nc1cc(Br)ccc1Br + O=c1cc(-c2cccc3c2Sc2ccccc2S3)oc(N2CCOCC2)c1 [KU55933] (first compound 2 µM, partner dose 1 µM) | 102% |
| C/C(O)=C(\C#N)C(=O)Nc1cc(Br)ccc1Br + CCCCCCCCCCCC1=C(O)C(=O)C=C(O)C1=O [Embelin] (first compound 2 µM, partner dose 1.2 µM) | 106% |
| C/C(O)=C(\C#N)C(=O)Nc1cc(Br)ccc1Br + O=C(Oc1ccc([N+](=O)[O-])cc1)N1CCC(C(O)(c2ccc3c(c2)OCO3)c2ccc3c(c2)OCO3)CC1 [JZL184] (first compound 2 µM, partner dose 1 µM) | 101% |
| N#Cc1c(O)c2c(-c3ccc(-c4ccccc4O)cc3)csc2[nH]c1=O + O=C(Oc1ccc([N+](=O)[O-])cc1)N1CCC(C(O)(c2ccc3c(c2)OCO3)c2ccc3c(c2)OCO3)CC1 [JZL184] (first compound 2 µM, partner dose 1 µM) | 106% |
| Cn1nnc2c(C(N)=O)ncn2c1=O [temozolomide] + Cc1cc(SCc2sc(-c3ccc(C(F)(F)F)c(F)c3)nc2C)ccc1OCC(=O)O [GW0742] (first compound 2 µM, partner dose 2 µM) | 105% |
| NC1(c2ccc(-c3nc4ccn5c(=O)[nH]nc5c4cc3-c3ccccc3)cc2)CCC1 + C[As](C)SC[C@H](NC(=O)CC[C@H](N)C(=O)O)C(=O)NCC(=O)O [Darinaparsin] (first compound 0.4 µM, partner dose 0.4 µM) | 77.1% |
| COc1ccc(-c2ccc3c(N4CCOCC4)nc(N4C[C@@H](C)O[C@@H](C)C4)nc3n2)cc1CO + O=C(Oc1ccc([N+](=O)[O-])cc1)N1CCC(C(O)(c2ccc3c(c2)OCO3)c2ccc3c(c2)OCO3)CC1 [JZL184] (first compound 0.02 µM, partner dose 1 µM) | 111% |
| Cc1ccc(NC(=O)c2cccc(N(C)C)c2)cc1NC(=O)c1ccc(O)cc1 + O=C(Oc1ccc([N+](=O)[O-])cc1)N1CCC(C(O)(c2ccc3c(c2)OCO3)c2ccc3c(c2)OCO3)CC1 [JZL184] (first compound 2 µM, partner dose 1 µM) | 89.3% |
| Cn1sc(=O)n(Cc2ccccc2)c1=O + C[C@]12O[C@H](C[C@]1(O)CO)n1c3ccccc3c3c4c(c5c6ccccc6n2c5c31)CNC4=O [Lestaurtinib] (first compound 0.4 µM, partner dose 0.004 µM) | 105% |
| Cc1cc(SCc2sc(-c3ccc(C(F)(F)F)c(F)c3)nc2C)ccc1OCC(=O)O + Oc1cc(-c2nc(-c3ccccc3)[nH]c2-c2ccncc2)ccc1Cl [L779450] (first compound 2 µM, partner dose 0.2 µM) | 107% |
| O=S(=O)(c1ccccc1)N(CC(F)(F)F)c1ccc(C(O)(C(F)(F)F)C(F)(F)F)cc1 + Cc1cc(SCc2sc(-c3ccc(C(F)(F)F)c(F)c3)nc2C)ccc1OCC(=O)O [GW0742] (first compound 1.4 µM, partner dose 2 µM) | 99.2% |
| COC(=O)c1sccc1S(=O)(=O)Nc1ccc(Nc2ccccc2)cc1OC + C/C(O)=C(\C#N)C(=O)Nc1cc(Br)ccc1Br [LFM-A13] (first compound 1 µM, partner dose 2 µM) | 99.6% |
| Cc1ccc(Nc2nccc(N(C)c3ccc4c(C)n(C)nc4c3)n2)cc1S(N)(=O)=O [Pazopanib] + N.N.[Cl][Pt][Cl] [cisplatin] (first compound 0.4 µM, partner dose 1.6 µM) | 93.4% |
| COc1cc(Nc2ncc(F)c(Nc3ccc4c(n3)NC(=O)C(C)(C)O4)n2)cc(OC)c1OC [Tamatinib] + O=C(Oc1ccc([N+](=O)[O-])cc1)N1CCC(C(O)(c2ccc3c(c2)OCO3)c2ccc3c(c2)OCO3)CC1 [JZL184] (first compound 0.4 µM, partner dose 1 µM) | 94.3% |
